From the supplement of paper PMC10126150
Values marked as one replicate rest on one cluster of the flow cell; about a third of the high ones do not repeat.

System: ATP
Assay: switch fluorescence ratio, 500 uM ATP over buffer (Cy3 cluster intensity, sum of 5 cycles each) (fold (ratio)); higher = stronger signal-on switching upon ATP binding; sequences stand for … in TCGTCGGCAGCGTCAGATGTGTATAAGAGACAGTTTTTTTTTTTTTTTTTTTTTTTTT…TC
Settings: aptamer strand: ATP DNA aptamer (quencher-CACCTGGGGGAGTATTGCGGAGGAAGG + anchor), 100 nM annealed; ATP concentration: 500 uM; one replicate
Summary of the method: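 Switching-strand clusters labelled with Cy3 on a modified Illumina MiSeq flow-cell were annealed to 100 nM quencher-labelled ATP aptamer, imaged in selection buffer, and re-imaged after 15 min with 500 uM ATP at 22 °C. This was done over five cycles with NaOH stripping and re-annealing in between. The fluorescence ratio is summed target-cycle over summed buffer-cycle Cy3 intensity per cluster, averaged per switch-domain sequence, excluding clusters outside 100-1000 RFU.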
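Further: ATP exposure 15 min at 22 °C before imaging.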

Sequence | switch fluorescence ratio
GTCGCGAATG | 1.07
ATCGCAGAGA | 0.949
GGAAAACGTA | 0.995
ATTCGCAAA | 2.08
GCAATCGTAG | 1.12
TAGGGCAAAG | 1.02
TAACTAGAAT | 0.994
AACGTTCATC | 1.16
TAGTTGGAG | 0.998
TATAATATCT | 0.992
CAGGAGCCTT | 1.05
AGCGCACCAT | 1.05
AATCATCTAA | 0.975
TGGTGGGAGA | 0.982
GTTCGGAGCA | 1.7
ACAATATCGA | 1.1
TCGAAGGAGC | 0.985
GGGCGGCAAA | 1.02
ATGGTGGCGT | 1.01
CGCGAAGGTC | 1.02
CTGGTATGCC | 1.3
TCATGTTCGC | 0.977
AGACACTCTT | 0.95
TTAGTTCCAG | 0.984
AAAGATGAGT | 1.05

Sequence | switch fluorescence ratio
TTCCCAGTGG | 1.19
TGAAGGTG | 1.33
CTTGCAGGGT | 0.992
CAAGCGTGTA | 1.04
AGCAAACGGA | 1.89
GACGGTACAT | 1.31
AGTATAAGTA | 0.958
CGAAACTCAT | 1.02
TTACAGCGAT | 1.14
CGAGTCAGGG | 1.1
AGGGGGATGC | 0.992
GGTACATCTA | 0.989
CCGCCCCTTA | 1.42
ACAAGGCTGA | 0.936
GGTGTCACTG | 0.993
CGAGTCCTCC | 1.06
ACCCGTCATC | 1.08
GGCCGTTGCG | 1.01
GCCCGCCTGG | 1.15
GACGGGCAA | 1.71
TTAAAATTGA | 1
CGCAACTAGT | 1.42
CGTACTAGCT | 1.03
TCTGTATTA | 1.03
GATTGTGCTC | 1.01

Sequence | switch fluorescence ratio
ATTGGGCTTG | 0.987
GGCACGGGCC | 0.973
CTATCCGGGC | 1.15
AACTGAATGC | 1.06
GGACGGACTG | 1.32
TAATGTACTT | 1.46
GAGAGCGACG | 0.991
AAGAGCGTAA | 1.01
CGTGCCTAAC | 1.05
GGGGACCGC | 1.06
AGTTTAATTG | 0.959
GGAAGAGATG | 0.956
CTGGGACGCT | 1.04
TAAATGGGAG | 0.957
TGGGATTTAA | 0.977
AGGTATAGCA | 1.02
GTTGGTCACT | 1.02
GACTACTAAA | 1.2
CAGGTGTTGT | 1.5
CCATAATATC | 1.26
TGTGAAAACT | 1.04
ATCTTCAAAG | 0.977
CCAGTTCCTG | 0.997
CCCGTTGCCC | 1.06
GGTACCATAA | 0.982

Sequence | switch fluorescence ratio
GAGTGCACTT | 1.04
CGGCCTGGCA | 1.03
TCGGGTATT | 0.977
TGTCGGCTT | 1.08
GACTCCCTAG | 0.99
AATGAGTATC | 1.01
TCCTGTTT | 1.1
GCTTGGCGGC | 0.998
GACGGTATAG | 1.01
ACGGACTTTA | 1.16
GGACGGATGA | 0.997
AATTGGCATA | 1.02
TTGTCTCAAT | 0.996
AAGGCCATTT | 0.959
GAATATTCTG | 0.974
CGCGAAAGGG | 0.974
TAGCGTTGCC | 0.962
AAAAAATAAT | 1.06
ATCATACCAG | 1.02
GGGCGGAGCC | 0.974
ATGAGAACAT | 1
CCTTAATTGT | 1.02
GGCAACCTGG | 1
TTTTCGGAAG | 1.04
TCCAAGTCGG | 0.963

Sequence | switch fluorescence ratio
TTCGTTCTGC | 1.03
TGCCGTTCAG | 1.05
ACTGTAGTAA | 1
GTGTTAACA | 1.01
GGTGGTAGAG | 1.01
TTGCTGACTG | 0.986
AACTACGTTT | 0.992
CTAACTCCAG | 1.07
GGGTTTCTCA | 1
AAGCCTGATA | 1
CAAGACTATA | 1
GACGAGTACT | 1.15
GGCTGGTATT | 0.993
CGCAATTGCT | 2.32
GAGAGCCCGC | 1.04
ACATATCGCA | 1.09
TTAATGTACA | 1.01
CAAGTGTCGC | 1.01
AACAATTACT | 1.24
TCGGGTCCCG | 0.969
CTCACAGAGG | 1.02
CGTGTGTTTC | 0.965
AGTACGCCGT | 0.982
ATCGTATAGA | 0.955
TCGCTGACAC | 2.11

Sequence | switch fluorescence ratio
TGCTCATTCA | 1.02
GTCATACTAC | 1.07
AGCGGGGCTC | 1.05
TTTTAAGG | 0.964
GTCCTTGAAC | 1
TCCGATAGG | 0.977
GGATACTGCT | 0.993
CTCTAGAACC | 1.02
ACACTGCATT | 1.16
GGAGTTAGTA | 0.972
GTAAGTCTTT | 0.978
GCTCAATCAA | 1.05
GGTTCTCACT | 0.969
AGTTCCGGTC | 1.09
CTTGTTGGCA | 1.04
TATACTTGGA | 1.01
TCACTATCCT | 1.05
TAAGACCTGG | 0.982
TTCGCCAGAC | 0.977
AGATTGAGGT | 1.01
CGCGTACCCG | 0.901
CACTGCTAAA | 1.2
ACTGGGACGG | 1.09
GCAGCTTTGT | 1.04
TAACGTACTT | 1.51

Sequence | switch fluorescence ratio
TTATGCTCGA | 1
CTGCAATGTG | 3.01
TATGAGCCGA | 1.02
CCTAGAATTG | 1
AGAACGAGTT | 1
CGCTCTTTAA | 1.01
AGACGGACGG | 1.03
CTAGGCGAGA | 1.03
GGTTCTGTG | 0.944
CCGGTAGCGG | 1.16
CCTTGGTTGT | 0.975
ACCTATGTAT | 1.03
TTTCACGACG | 1.23
CGGCTCGGGA | 1.03
CAAAACCATT | 1
ATCTCTGACC | 1.04
GCCAGGTGCT | 0.993
TCTGCGTGGC | 0.999
TGCCTAGCCT | 1.01
TATTGATTCT | 0.983
CTAAAGAAGA | 1.02
CTGAGAGATA | 1.05
TGGTTTGACA | 0.925
CAATTACTTG | 1.01
AAGCTGATGT | 1.03

Sequence | switch fluorescence ratio
TGGGACTCTA | 1.02
ATATTTCAAT | 1.03
GTCGGTGGGA | 1.03
TTTCTGAGAC | 0.991
ATCCGAGATA | 1.17
ACTTTAGTC | 1.07
CTTCTGTTAT | 1.01
GTGCCCGCCA | 1.05
TTTAGAATTC | 0.99
ATTGCGATA | 1.07
TTTGGGCCTA | 1.03
TACGCAGCAG | 3.51
GTCTTTTACA | 1.02
ATTAGGCCTT | 1.07
GTTTTGGTGA | 0.998
ACTATATAGA | 1.01
ATTGTCAGTC | 0.96
TGGTATACGC | 1.04
ATTTCGCTGA | 1.03
ATATCATGCG | 0.986
GGCACCTTCA | 1.95
ATCGGCTGGG | 1.02
GTAAACCCAA | 1.09
GACTGGCATG | 0.97
ACCTATGTAG | 1.04
